US20180371044A1, “PEPTIDOMIMETIC MACROCYCLES” (Aileron Therapeutics, Inc., priority 2015, published 2018)
For at least one compound, name, drawing or mass did not settle the structure. Where a SMILES comes first, the peptide text is derived from it. Bridges are numbered along the chain shown (N, C = ends). [ ]: non-standard residue; d: D form. The star is where a group is joined. Decanoyl(3,6,9-trioxa) = COCCOCCOCC(=O)*; S5 = C=CCCC[C@](C)(N)C(=O)O; Nle = CCCC[C@H](N)C(=O)O

Assays:
[1] = biological target: T1, VIPR1 (Vasointestinal Peptide Receptor 1) (Homo sapiens, UniProt P32241); assay: DiscoverX cAMP Hunter eXpress VIPR1 CHO-K1 GPCR assay; format: cell-based; settings: VIPR1 CHO-K1 cells
T1 construct: host or cells: CHO-K1 (cAMP Hunter eXpress VIPR1 CHO-K1 GPCR assay kit)
T1 sequence (P32241 31-457): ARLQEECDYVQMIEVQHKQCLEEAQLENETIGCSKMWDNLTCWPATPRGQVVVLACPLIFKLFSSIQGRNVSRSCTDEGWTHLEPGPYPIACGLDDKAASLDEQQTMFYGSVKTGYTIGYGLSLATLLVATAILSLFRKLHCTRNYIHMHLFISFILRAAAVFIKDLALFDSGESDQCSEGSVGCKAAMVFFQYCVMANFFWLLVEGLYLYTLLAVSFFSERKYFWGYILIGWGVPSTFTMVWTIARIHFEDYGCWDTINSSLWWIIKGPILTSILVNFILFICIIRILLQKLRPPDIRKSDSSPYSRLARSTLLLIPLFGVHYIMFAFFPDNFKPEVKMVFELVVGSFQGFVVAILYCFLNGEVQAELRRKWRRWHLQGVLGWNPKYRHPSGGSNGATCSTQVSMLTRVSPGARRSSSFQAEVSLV
Description: DiscoverX cAmP Hunter eXpress VIPRI CHO-K1 GPCR and GHRHR CHO-K1 GPCR assays kits were used. The DiscoverX kits contain naturally coupled GPCR cell lines designed to detect GPCR signaling through second messenger activation. This signaling involves a membrane bound enzyme called adenylate cyclase. […] receptors modulate cAMP by either inhibiting or stimulating adenylate cyclase, respectively. The DiscoverX cell lines included in the kits utilize the natural coupling status of the GPCR to monitor activation of […] receptors. Following ligand stimulation, the functional status of the GPCR is monitored by measuring cellular cAMP levels using a homogeneous, gain of signal competitive immunoassay based on Enzyme Fragment Complementation (EFC). The amount of EFC is measured by analysis with a fluorescent plate reader.
On the day before the assay, the DiscoverX cell lines were defrosted, plated into 384 well plates and allowed to incubate overnight. […] The samples were analyzed on a Tecan Ultra Evolution plate reader according to DiscoverX guidelines. The EC50 values were determined using GraphPad Prism software. […]
DiscoverX™ cAmP Hunter eXpress VIPR1 CHO-K1 GPCR and GHRHR CHO-K1 GPCR assay kits were used. […] The samples were analyzed on a Tecan™ Ultra Evolution plate reader according to DiscoverX™ guidelines. The EC50 values were determined using GraphPad™ Prism software. […]

GHRHR = biological target: T2, GHRHR (Homo sapiens, UniProt Q02643); assay: DiscoverX cAMP Hunter eXpress GHRHR CHO-K1 GPCR assay; format: cell-based; settings: GHRHR CHO-K1 cells
T2 construct: host or cells: CHO-K1 (cAMP Hunter eXpress GHRHR CHO-K1 GPCR assay kit)
T2 sequence (Q02643 23-423): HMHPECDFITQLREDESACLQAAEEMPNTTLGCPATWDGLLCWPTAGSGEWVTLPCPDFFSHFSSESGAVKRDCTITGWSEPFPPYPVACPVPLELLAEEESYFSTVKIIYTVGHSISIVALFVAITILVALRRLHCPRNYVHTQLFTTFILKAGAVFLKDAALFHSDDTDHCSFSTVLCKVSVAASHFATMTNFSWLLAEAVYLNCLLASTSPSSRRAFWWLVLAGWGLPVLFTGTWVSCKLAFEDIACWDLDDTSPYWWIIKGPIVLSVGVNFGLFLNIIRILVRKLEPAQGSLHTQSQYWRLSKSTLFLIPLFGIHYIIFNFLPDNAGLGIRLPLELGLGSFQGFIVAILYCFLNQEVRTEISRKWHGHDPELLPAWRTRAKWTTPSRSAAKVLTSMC

For `CCCC[C@H](NC(=O)[C@@H](NC(=O)[C@H](CC(=O)O)NC(=O)[C@H](CCC(N)=O)NC(=O)[C@H](CC(C)C)NC(=O)[C@H](C)NC(=O)[C@H](CCCCN)NC(=O)[C@H](CCCNC(=N)N)NC(=O)[C@H](C)NC(=O)[C@H](CO)NC(=O)[C@]1(C)CCCC=CCCC[C@](C)(NC(=O)[C@H](CCCCN)NC(=O)[C@H](CCCNC(=N)N)NC(=O)[C@H](Cc2ccc(O)cc2)NC(=O)[C@H](CO)NC(=O)[C@H](C)NC(=O)[C@@H](NC(=O)[C@H](Cc2ccccc2)NC(=O)[C@@H](NC(=O)[C@H](C)NC(=O)[C@H](CC(=O)O)NC(=O)[C@@H](C)NC(=O)[C@H](Cc2ccc(O)cc2)NC(=O)COCCOCCOC)[C@@H](C)CC)[C@@H](C)O)C(=O)N[C@@H](CC(C)C)C(=O)N[C@@H](C)C(=O)N[C@@H](CCC(N)=O)C(=O)N1)[C@@H](C)CC)C(=O)N[C@@H](CO)C(=O)N[C@@H](CCCNC(=N)N)C(N)=O` [SP-135] ({Decanoyl(3,6,9-trioxa)}-Y[dA]DAIFTASYRK[S5]LAQ[S5]SARKALQDI[Nle]SR-NH2; staple 13-17; N-terminus and C-terminus assumed), the EC50 [1] was 100 to 1000 pM and the EC50 (GHRHR) was < 100 pM.
